Laboratory results published in PMC12136788.
The list shows a part of the results.

T1: UNK ZnF1-3 (human, UniProt Q9C0B0 31-174)
T1 sequence: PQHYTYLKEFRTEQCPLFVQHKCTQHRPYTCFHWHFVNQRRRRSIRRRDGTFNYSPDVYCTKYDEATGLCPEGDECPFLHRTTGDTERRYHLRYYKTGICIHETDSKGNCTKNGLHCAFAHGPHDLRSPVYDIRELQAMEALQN

B1: chr11:29999759:29999760:-_ENSMUSG00000020315_ENSMUST00000011877|mus_hu|motif|central (ssRNA)
RNA: GGGAGUUCUACAGUCCGACGAUCUACACUUACCAAUGAUUUAAAGGGUUUAUUAUACAUCUAGUUUUAUUAUACUUUGUACGGGAAUUAUCUCAAACGUACAAUAUAAUGUAUUUCAGCAAAAAAAAAAAAUUGAAAUUACAGCAACAGAGGAUUGAGCAUCA
B2: chr12:56508462:56508463:+_ENSMUSG00000021024_ENSMUST00000021412|mus_hu|FALSE|FALSE (ssRNA)
RNA: GGGAGUUCUACAGUCCGACGAUCACAGUCUUUCCCUCUGACAGCUACUGAUGUAAGGCCACCCUGGUUAAUAGCCUUAAAAGCAUAUUCUACUUGGUAGAGCCGACCCUCGGGUGAAAAAAUGGUAAUGUGGCGGUCAAAACCCAACAGAGGAUUGAGCAUCA
B3: chr1:182797045:182797046:+_ENSMUSG00000038806_ENSMUST00000038091|mus_mus|FALSE|FALSE (ssRNA)
RNA: GGGAGUUCUACAGUCCGACGAUCACACAAGGCAUGUAGGAGAGGAAAUACAAUUCAAAUGCCAAUGAGAUCAACAACUGAGAAAAAUCCACAAAGACAAAAAACUGAUUCUUUGAAAACCAAACAAAAUAGGUCCCUAGCUAGCAACAGAGGAUUGAGCAUCA
B4: 179959696_179961256_653_3pUTR_ENSG00000135837_ENST00000367607|human|control|control (ssRNA)
RNA: GGGAGUUCUACAGUCCGACGAUCGUGAUUUAGUGGAUUUGGAGAUUGGAGCAUUAACCCAAGAAUCAUCCAGGUAUCUACCAUCUUUUCUACUUAUUUUUCGAGUAGCACUUGUAGAAGACUUCUUGGUAUCCAUGACAGAAUCAACAGAGGAUUGAGCAUCA
B5: chr2:198367945:198367946:+_ENSG00000115541_ENST00000409468|hu_mus|motif|central (ssRNA)
RNA: GGGAGUUCUACAGUCCGACGAUCGACACCAUUUCAACAGUGAUUUCAGUCGACAUACUUUCCAAGAAUGUCACUAUCUCGGAAUAAGAAAUAAUCCUUGUCAUCUAGAACUACUUUGGUGCCUCCAUAUUCUGGGAGAAGAACCAACAGAGGAUUGAGCAUCA
B6: chr16:5026692:5026693:-_ENSMUSG00000022536_ENSMUST00000115844|mus_mus|FALSE|FALSE (ssRNA)
RNA: GGGAGUUCUACAGUCCGACGAUCACCCAUUUUUAGCAAGUUGGAGACGAUGCCACUUCCCAUUAAGCCAAGGCCCAAAAAUCCUAUCUUUUUGUCUGUGGGUGUAAUGCUGCCAUUCACAGCUGUGCUGUCUGCUGCCUGGAUCAACAGAGGAUUGAGCAUCA
B7: chr10:60127708:60127709:+_ENSG00000072401_ENST00000373910|hu_hu|motif|central (ssRNA)
RNA: GGGAGUUCUACAGUCCGACGAUCUGCAUGUCUGUUGUAUUUUUCUUUGUCUGAUUUAUAGAUUUGUGCAAUAUCUGGUACGGAGGGGUCAUCUGGAUUAGGAUCACAAAGUAGAGAACAUAUGGACAAUAAAACUUUUGAUACCAACAGAGGAUUGAGCAUCA
B8: chr1:39494564:39494565:+_ENSG00000168653_ENST00000372967|hu_hu|hu_hu_hu_mus_True|58_98 (ssRNA)
RNA: GGGAGUUCUACAGUCCGACGAUCAUGCAUUCGCCUCAUCGUUUUCUACCGAAGCAAGCACUCUUCGAAGUCAUCGAAUUCUAUCUUGCACUCCUUUUUCGCCCGGGUCCCACCGAUCCCGUGUGCACACUCUAUCCACUCUUUCAACAGAGGAUUGAGCAUCA
B9: chr12:104381838:104381839:+_ENSG00000139372_ENST00000392872|hu_hu|FALSE|FALSE (ssRNA)
RNA: GGGAGUUCUACAGUCCGACGAUCACAAACAGCAAUGAUGCAGAUAAAGAAUCUUUAAAAUUAUUGGCUUACUGGAUUUACCUAGCAAGAAAAAUUCUAUAUUACUUAUUUUAGUACAUCUCAUGUACAUAAAGCACCAGUUUACAACAGAGGAUUGAGCAUCA
B10: chr5:134143580:134143581:+_ENSG00000145833_ENST00000354283|hu_mus|FALSE|FALSE (ssRNA)
RNA: GGGAGUUCUACAGUCCGACGAUCGCCCGCUCUUCCAGUCCGCCCAGCUCUGUGCACAUAAUCUUCAUAAUGAUUGGGGCAGCUGUAAUUCACUACAAGAAUUAGAUGUUUCACAUCGAGACCACGAGCUGCAACAGAUGUGGCCAACAGAGGAUUGAGCAUCA
B11: chr4:144460044:144460045:+_ENSG00000153147_ENST00000283131|hu_mus|hu_hu_hu_mus_False|48_98 (ssRNA)
RNA: GGGAGUUCUACAGUCCGACGAUCACGGUCCAUAGCCUGAAGAUCUACUUGCGGAUUCCAAUCUGAGUCAUAUAAAAUGACUACAUCAGCAGUCGCAAGAUUGAUGCCCAGACCACCAGCACGUGUGCUUAGCAUAAAUACAAACAACAGAGGAUUGAGCAUCA
B12: chr16:75674161:75674162:-_ENSG00000065427_ENST00000302445|hu_mus|FALSE|FALSE (ssRNA)
RNA: GGGAGUUCUACAGUCCGACGAUCGCGGCCUGCCACUUUGAGGGUGACAUCAGUCAGGUGGUCCCCAGGCUGCAGGUGACUAUAUUCUUGGAUGAACUGAGUGAGUGAGAUGUCCACGUGGAACUUGUGUGGGUACGGAUCCUCCAACAGAGGAUUGAGCAUCA
B13: chr4:41951345:41951346:+_ENSG00000109133_ENST00000513702|hu_hu|FALSE|FALSE (ssRNA)
RNA: GGGAGUUCUACAGUCCGACGAUCAAAUAAGGUCCGACAAUAUGGGUUUCUUCGAGACGAAUAUCGAAGGGUAAGAAAUCUAUAGUAUAUAAAAGGUUGGAGCAAACUUCCUUGACCACUAAAAAGCAUAAAAACUGUCGCAGGCAACAGAGGAUUGAGCAUCA
B14: chr9:95013113:95013114:-_ENSG00000196305_ENST00000443024|hu_hu|hu_hu_hu_mus_False|88_88 (ssRNA)
RNA: GGGAGUUCUACAGUCCGACGAUCCUCAGUCAGAAAGGGCGUGUAAGGAGCCAUAAGUCUGCACAGAGAAAGCAGGACACUGAACAGUGUCUCCAGAGCCAUGACACAGUCUUCCACCCCACUCUCACCCUUUAACCUCCUCCUCAACAGAGGAUUGAGCAUCA
B15: 96274653_96277060_1845_CDS_ENSG00000134874_ENST00000376829|human|control|control (ssRNA)
RNA: GGGAGUUCUACAGUCCGACGAUCUUCUUUAAACUCGUGUGCAUCUUUUAAUGUGCCUAUGUUGGACUUGAUCUGCAUAUUGGACUUCUGGAUUUCUGACAGUUGAUAUUCUAAUGCUGAAUUCUUCGAAGUUAAUUCUUUAAACAACAGAGGAUUGAGCAUCA
B16: chr14:103803487:103803488:+_ENSG00000100664_ENST00000558506|hu_mus|hu_hu_hu_mus_True|28_88 (ssRNA)
RNA: GGGAGUUCUACAGUCCGACGAUCGAGUUUAUGAUGUGUGUCAAGCAUGCCUCGAUACCCACAGGCUUUACAAGAAUUACCUAUUGUUUGCUUCUUUGGAUUGACAUGCAAAUCUGUUUCAGGAUUCUCACACUCAGGACAGAGCAACAGAGGAUUGAGCAUCA
B17: chr7:56126341:56126342:+_ENSG00000146731_ENST00000540286|hu_mus|FALSE|FALSE (ssRNA)
RNA: GGGAGUUCUACAGUCCGACGAUCCAUGUUUCUCCUCUUGGCUCUGCGCAGAGCUACGAUCCCUUCUUUCGCAAGGGCAUCUAAGGAAAAGGGGUCAAUCCCCUUUUGAUUAAUAACGACAAAUCCUUUAUCUGAGUCACCACACAACAGAGGAUUGAGCAUCA
B18: chr10:116622662:116622663:+_ENSG00000151553_ENST00000369248|hu_mus|FALSE|FALSE (ssRNA)
RNA: GGGAGUUCUACAGUCCGACGAUCAACAGACUGAGCACAGUGUCAAACAAGCUCCGAGCCAUGCCGCGGCCGUGGCUGUGGCUGUACAGCUCAGCUGGUGACUGCCCCCCCCCCCCGACUGUCUCCCUCAUCGUAACGGCCAGUCAACAGAGGAUUGAGCAUCA
B19: chr7:135832278:135832279:+_ENSMUSG00000042105_ENSMUST00000118605|mus_mus|FALSE|FALSE (ssRNA)
RNA: GGGAGUUCUACAGUCCGACGAUCCUGCUGCCCUAAUCAUUUUUGUUUUCCCGCCACUGUGGCAAACCUUCCUUCCAUACUAUAAAAACAAAAAUUGCCAAAACUACAUGCAGCCCAACCACGGAGACAAUGGUCGCAUAAAAACAACAGAGGAUUGAGCAUCA
B20: chr6:38652254:38652255:-_ENSG00000124767_ENST00000373365|hu_hu|hu_hu_hu_mus_False|8_88 (ssRNA)
RNA: GGGAGUUCUACAGUCCGACGAUCCGAGAACUUCAUAGCAGGGAAGUCACAUUUUUGCAGGAGGGUCAGUCCAAGAACCCUCGUAUAAAAAUCCAGGGACUUCUUAGGAUCCUUAAUUCUUAGCAUCGUCUGCUGCAGUAGAAACAACAGAGGAUUGAGCAUCA
B21: chr4:57314706:57314707:+_ENSG00000128050_ENST00000264221|hu_mus|hu_hu_hu_mus_True|58_98 (ssRNA)
RNA: GGGAGUUCUACAGUCCGACGAUCCAGAAUUUCAAAAAUAGCCUGUGUGGCAUGACUCAUGAUGUCCACUUCAGUCUGGCCUAUAAGAAGGCCAGCAAAACAGAAUUUUGCAGCAAUGAGUUGCUCCUCAGACCACUGUGGAUCCAACAGAGGAUUGAGCAUCA
B22: chr17:73774127:73774128:-_ENSG00000132475_ENST00000254810|hu_hu|FALSE|FALSE (ssRNA)
RNA: GGGAGUUCUACAGUCCGACGAUCAUGACAAGACUCCCCACCACUUGUGAAUGUAAAACAUUUAAUUUAAAAAUGUUGAUACUACAAUAUAUAAAAUAGCUAUUAUAAAUGCACAUAGUGUAUUCUAUAGCUGCCAGGUUUACUCAACAGAGGAUUGAGCAUCA

Each binder was assayed against T1, UNK ZnF1-3 (assay: nsRBNS (natural sequence RNA bind-n-seq); RBNS binding buffer (assumed for nsRBNS): 25 mM Tris pH 7.5, 150 mM KCl, 3 mM MgCl2, 0.01% Triton X-100, 500 ug/ml BSA, 20 U/ml SUPERase-In, 4 C; UNK is unkempt and MSI1 is Musashi-1; names of the RNAs are library labels; protein concentration not given here; high values mean tight binding).

Binder | binding signal
B1 | 1.77 enrichment R
B2 | 1.17 enrichment R
B3 | 1.65 enrichment R
B4 | 0.916 enrichment R
B5 | 1.23 enrichment R
B6 | 1.01 enrichment R
B7 | 1.59 enrichment R
B8 | 0.649 enrichment R
B9 | 0.943 enrichment R
B10 | 2.01 enrichment R
B11 | 0.759 enrichment R
B12 | 0.992 enrichment R
B13 | 2.12 enrichment R
B14 | 1.28 enrichment R
B15 | 0.675 enrichment R
B16 | 1.12 enrichment R
B17 | 0.933 enrichment R
B18 | 0.896 enrichment R
B19 | 1.71 enrichment R
B20 | 1.05 enrichment R
B21 | 0.842 enrichment R
B22 | 1.47 enrichment R
